IC50 is the fitted dose that halves viability relative to control wells, and lower means more sensitive; a fit beyond the top or the lowest dose is shown as a bound at that dose. The AUC spans the tested range (256-fold, ending at the top dose) of the same fit; values near 1 show little effect. A top dose marked as inferred is not printed in the source and was worked back from the curve model.
These cell lines were tested with CC1=C(C(=O)Nc2cc3cn[nH]c3cc2F)C(c2ccc(C(F)(F)F)cc2)CC(=O)N1 [GSK429286A] (assay: Viability of human cancer cell lines after 72 h of drug (GDSC screen)). Settings: top dose inferred.
Description: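 Human cancer cell lines in 384-well plates, medium with 10% serum, drug for 72 h over a 256-fold dose range (nine 2-fold or five 4-fold steps up to the top dose). Adherent lines were fixed and stained with the nucleic acid dye Syto60, suspension lines read with resazurin; signal relative to control wells, capped at 0 and 100%. One two-parameter sigmoid per drug and line, fitted in a mixed model over all curves with the slope shared within a line.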
Cell Line “NCI-H1648 (lung adenocarcinoma, adherent, top dose 20 µM)” has an AUC of 0.985 and an IC50 greater than 20 µM.
With “KELLY (neuroblastoma, adherent, top dose 20 µM)” the AUC was 0.952 and the IC50 was greater than 20 µM.
With “MDA-MB-453 (breast, adherent, top dose 20 µM)” the AUC was 0.979 and the IC50 was greater than 20 µM.
In the case of “WSU-NHL (lymphoid neoplasm, suspension, top dose 20 µM)”, the AUC is reported as 0.952 and the IC50 is reported as greater than 20 µM.
“NCI-SNU-5 (stomach, suspension, top dose 20 µM)” was tested, and the AUC was 0.988 and the IC50 was greater than 20 µM.
JHH-2 (liver, adherent, top dose 20 µM) was tested, and the AUC was 0.986 and the IC50 was greater than 20 µM.
Cell Line “HARA (lung squamous cell carcinoma, adherent, top dose 20 µM)” has an AUC of 0.871 and an IC50 greater than 20 µM.
With “NTERA-2 cl.D1 (testis, adherent, top dose 20 µM)” the AUC was 0.948 and the IC50 was greater than 20 µM.
“CAL-148 (breast, suspension, top dose 20 µM)” gave an AUC of 0.989 and an IC50 greater than 20 µM.
Work on “HCC-78 (lung adenocarcinoma, adherent, top dose 20 µM)” yielded an AUC of 0.983 and an IC50 greater than 20 µM.
In the case of “HT-144 (melanoma, adherent, top dose 20 µM)”, the AUC is reported as 0.981 and the IC50 is reported as greater than 20 µM.
“HCC-15 (lung squamous cell carcinoma, adherent, top dose 20 µM)” gave an AUC of 0.967 and an IC50 greater than 20 µM.
“Becker (glioma, adherent, top dose 20 µM)” gave an AUC of 0.981 and an IC50 greater than 20 µM.
Cell Line TT (thyroid, adherent, top dose 20 µM) has an AUC of 0.983 and an IC50 greater than 20 µM.
With “SNU-1040 (large intestine, adherent, top dose 20 µM)” the AUC was 0.971 and the IC50 was greater than 20 µM.
“JHOS-3 (ovary, adherent, top dose 20 µM)” was tested, and the AUC was 0.984 and the IC50 was greater than 20 µM.
“COLO-320-HSR (large intestine, suspension, top dose 20 µM)” showed an AUC of 0.981 and an IC50 greater than 20 µM.
In the case of AGS (stomach, adherent, top dose 20 µM), the AUC is reported as 0.984 and the IC50 is reported as greater than 20 µM.
For “LU-134-A (small cell lung carcinoma, suspension, top dose 20 µM)”, the AUC was 0.968 and the IC50 was greater than 20 µM.
Work on “NCI-H524 (small cell lung carcinoma, suspension, top dose 20 µM)” yielded an AUC of 0.956 and an IC50 greater than 20 µM.
In the case of “SK-MEL-5 (melanoma, adherent, top dose 20 µM)”, the AUC is reported as 0.974 and the IC50 is reported as greater than 20 µM.
“NY (osteosarcoma, adherent, top dose 20 µM)” gave an AUC of 0.987 and an IC50 greater than 20 µM.
“CAS-1 (glioma, adherent, top dose 20 µM)” was tested, and the AUC was 0.874 and the IC50 was greater than 20 µM.
Cell Line TK10 (kidney, adherent, top dose 20 µM) has an AUC of 0.979 and an IC50 greater than 20 µM.
For “RL95-2 (endometrium, adherent, top dose 20 µM)”, the AUC was 0.981 and the IC50 was greater than 20 µM.
In the case of “MEL-JUSO (melanoma, adherent, top dose 20 µM)”, the AUC is reported as 0.957 and the IC50 is reported as greater than 20 µM.
Cell Line “A2780 (ovary, semi-adherent, top dose 20 µM)” has an AUC of 0.518 and an IC50 of 1.4 µM.
For “EW-16 (Ewing sarcoma, adherent, top dose 20 µM)”, the AUC was 0.968 and the IC50 was greater than 20 µM.
“CAL-54 (kidney, adherent, top dose 20 µM)” showed an AUC of 0.958 and an IC50 greater than 20 µM.
“LN-18 (glioma, adherent, top dose 20 µM)” was tested, and the AUC was 0.994 and the IC50 was greater than 20 µM.
“NCI-H1944 (lung adenocarcinoma, adherent, top dose 20 µM)” showed an AUC of 0.952 and an IC50 greater than 20 µM.
Work on “EMC-BAC-2 (lung adenocarcinoma, adherent, top dose 20 µM)” yielded an AUC of 0.947 and an IC50 greater than 20 µM.
Cell Line “NB14 (neuroblastoma, adherent, top dose 20 µM)” has an AUC of 0.986 and an IC50 greater than 20 µM.
HLE (liver, adherent, top dose 20 µM) was tested, and the AUC was 0.972 and the IC50 was greater than 20 µM.
